Measurements: article PMC4336329 (PLoS ONE, 2015)
Out of some 310,000 compounds screened, about 14,000 (4.5%) showed an effect of 50% or more. The effect is printed as a negative number. The list shows a part of the results.

molecular target: human ether-à-go-go-related gene (hERG) potassium channel (human, UniProt Q12809); assay: primary screen, population patch clamp on CHO cells stably expressing hERG
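Further: peak tail current of the secondary pulse compared with the same well before compound.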

Sequence of human ether-à-go-go-related gene (hERG) potassium channel (Q12809 whole entry, looked up): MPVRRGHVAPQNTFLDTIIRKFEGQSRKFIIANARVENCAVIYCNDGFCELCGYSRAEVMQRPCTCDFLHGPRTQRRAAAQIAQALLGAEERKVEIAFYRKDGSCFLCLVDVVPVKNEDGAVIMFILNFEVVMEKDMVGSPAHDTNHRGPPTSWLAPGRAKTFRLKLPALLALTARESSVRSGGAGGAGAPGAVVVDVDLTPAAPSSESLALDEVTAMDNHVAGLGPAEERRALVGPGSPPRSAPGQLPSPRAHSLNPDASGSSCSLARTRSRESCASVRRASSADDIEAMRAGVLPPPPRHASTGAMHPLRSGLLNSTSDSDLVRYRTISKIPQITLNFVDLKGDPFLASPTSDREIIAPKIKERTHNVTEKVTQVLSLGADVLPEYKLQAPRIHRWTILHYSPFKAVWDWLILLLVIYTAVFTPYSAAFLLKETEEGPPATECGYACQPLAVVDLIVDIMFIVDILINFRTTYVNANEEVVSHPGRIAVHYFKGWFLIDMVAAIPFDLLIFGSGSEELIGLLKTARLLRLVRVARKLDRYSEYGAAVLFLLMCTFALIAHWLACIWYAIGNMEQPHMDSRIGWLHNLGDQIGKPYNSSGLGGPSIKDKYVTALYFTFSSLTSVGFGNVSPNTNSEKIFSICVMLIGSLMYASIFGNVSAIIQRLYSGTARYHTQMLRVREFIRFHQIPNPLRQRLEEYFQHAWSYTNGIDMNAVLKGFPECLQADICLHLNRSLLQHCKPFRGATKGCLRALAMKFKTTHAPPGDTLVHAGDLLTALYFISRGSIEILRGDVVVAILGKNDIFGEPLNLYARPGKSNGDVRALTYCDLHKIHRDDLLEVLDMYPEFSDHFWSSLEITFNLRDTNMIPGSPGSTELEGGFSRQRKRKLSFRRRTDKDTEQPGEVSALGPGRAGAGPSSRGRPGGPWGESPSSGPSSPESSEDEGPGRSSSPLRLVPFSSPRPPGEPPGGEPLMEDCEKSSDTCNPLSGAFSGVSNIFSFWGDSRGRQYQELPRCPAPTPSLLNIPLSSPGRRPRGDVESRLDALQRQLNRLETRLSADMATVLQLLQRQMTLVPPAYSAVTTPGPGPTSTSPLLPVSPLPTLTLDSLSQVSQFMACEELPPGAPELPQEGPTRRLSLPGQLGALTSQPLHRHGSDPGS

In order of falling “hERG current change (%, negative = inhibition) at 10uM” value:
1. O=S(=O)(c1ccc(Br)s1)N1CCN(c2ccc(F)cc2)CC1  25.1%
2. CCCc1nn2c(=O)c(C(c3cccc(Cl)c3)c3c(O)nc4sc(CCC)nn4c3=O)c(O)nc2s1  24.4%
3. CON(C)C(=O)Nc1ccc(Cl)cc1  23.8%
4. CCc1cccc(OCC(=O)Nc2c[nH]c(=O)[nH]c2=O)c1  23%
5. Cc1ccnc2nc(C(=O)OCC(=O)N3CCc4ccccc43)nn12  22.9%
6. CCN1C(=O)c2ccc(C(=O)Nc3c(C)cc(C)cc3C)cc2C1=O  22.7%
7. COc1ccc(NC(=O)CCn2c(=S)[nH]c3ccccc3c2=O)cc1  22.3%
8. CC(=O)N(Cc1ccco1)C1(C(=O)NC2CCCC2)CCCCC1  21.7%
9. CSCC[C@H](NC(=O)[C@H](Cc1ccccc1)n1c(=O)[nH]c2ccccc2c1=O)C(=O)NCC1CCC(C(=O)O)CC1 (stereo partly drawn)  19.1%
10. O=C1NC(=O)N(Cc2ccc(F)cc2)C(=O)/C1=C\c1ccc([N+](=O)[O-])s1  18.9%
11. C/C(=N\NC(=O)c1cc(C2CC2)nc2ccccc12)c1ccc(C)s1  18.3%
12. COc1ccc2sc3ccccc3c(=O)c2c1OC  17.5%
13. CC(=O)Nc1ccc(C(=O)Nc2nc(-c3cccnc3)cs2)cc1  16.7%
14. CN1C(=O)c2c(sc3c2CCCC3)NC1c1ccccc1O (stereo not drawn)  16.4%
15. CN/C(=C\[N+](=O)[O-])NCCSCc1csc(CN(C)C)n1  15.7%
16. Cc1ccc(C(=O)Nc2ncc3c(n2)CC(c2ccco2)CC3=O)cc1 (stereo not drawn)  14.9%
17. CN(C)C(=O)OCC1COc2ccccc2O1 (stereo not drawn)  14.6%
18. Cc1cc(C)cc(C(=O)Nc2ccc3[nH]c(=O)[nH]c3c2)c1  14.6%
19. O=C(NCC1CCCO1)c1ccc(Cl)c(F)c1F (stereo not drawn)  14.6%
20. O=C(O)c1cc(S(=O)(=O)O)cc(Nc2c3ccccc3nc3ccccc23)c1O  14.6%
21. O=C(CN1C(=O)c2ccc([N+](=O)[O-])cc2C1=O)NCc1ccc(C(=O)O)cc1  13.8%
22. NC(=O)Cn1c(=O)n(CCC(=O)NCCSCc2ccccc2)c(=O)c2ccccc21  13.6%
23. Cc1cc(C)c(NC(=O)OCCN2CCOCC2)c(C)c1  13.1%
24. Cc1cc(-c2n[nH]c(=S)n2Cc2ccco2)nn1C  12.3%
25. Cc1cc(C)nc(NS(=O)(=O)c2ccc(N)cc2)n1  12%
26. O=S(=O)(NCc1c(Cl)cccc1Oc1ccccc1)c1ccccc1  11.9%
27. CC(NC(=O)CSc1n[nH]c(N)n1)c1ccccc1 (stereo not drawn)  11.8%
28. COc1ccc(-c2nnn(CC(=O)N(CCO)C(C(=O)NC3CCCC3)c3ccncc3)n2)cc1 (stereo not drawn)  10.9%
29. Cc1ccc(CCNC(=O)c2nnn(-c3cc(C)cc(C)c3)c2N)cc1  10.5%
30. CCOC(=O)C(C)c1nn(C)c(=O)c2ccccc12 (stereo not drawn)  9.24%
31. O=C(NCc1cccnc1)c1noc2c1CCCCC2  9.21%
32. O=C(O)CSc1nnc(-c2ccco2)o1  8.89%
33. COc1cccc(NC(=S)NCc2cccnc2)c1  8.76%
34. COc1cccc(CNc2ncn[nH]2)c1OCc1ccc(F)cc1  8.3%
35. COc1ccc(S(=O)(=O)N2CCC(C(=O)NCc3ccco3)CC2)cc1C  8.26%
36. CCCCc1ccc(NC(=O)CSc2nc3ncccc3[nH]2)cc1  8.18%
37. O=C(COC(=O)Cc1ccccc1)Nc1ncc(Cl)cc1Cl  7.72%
38. COc1ccc(-c2cn(Cc3ccc(C)cc3)nn2)cc1  7.67%
39. O=C(CCC(=O)c1cccs1)OCC(=O)c1ccc(Cl)s1  6.99%
40. O=C(NNc1ccc([N+](=O)[O-])cc1)C1C2CCCCC21 (stereo not drawn)  6.84%
41. COc1ccc(/C=C(/C#N)S(=O)(=O)c2ccc(C)cc2)cc1  6.64%
42. O=S1(=O)CCN(Cc2ccc(Cl)c(Cl)c2)CC1  6.46%
43. CC(C)NC(=O)COCc1cc(-c2ccc3c(c2)OCO3)on1  5.76%
44. CCCn1nnnc1NC(=O)COc1ccc(Br)cc1  5.06%
45. O=C1CCc2cc(S(=O)(=O)Nc3ccccc3)cc3c2N1CC3  4.53%
46. Cc1cccc(NC(=O)CNC(=O)c2ccc3nc[nH]c3c2)c1C  4.12%
47. COc1ccc(-c2csc(CCn3nc(C)cc3C)n2)cc1  4.1%
48. COc1cccc(NS(=O)(=O)c2ccc3c(c2)C2C=CCC2C(c2ccc(C(=O)O)cc2)N3)c1 (stereo not drawn)  4.09%
49. COC(=O)c1ccc(/C=N/NC(=S)NC(C)C)cc1  3.93%
50. CC(C)NC(=S)N/N=C/C1=CCC2CC1C2(C)C (stereo not drawn)  3.52%
51. Cc1cccc(NC(=O)NC(=S)NC(=O)c2ccccc2)c1  3.41%
52. CCOc1ccc(-c2nnc(SCC(=O)N3CCOCC3)o2)cc1  2.8%
53. O=C(NC(=S)Nc1ccccc1N1CCN(C(=O)c2ccccc2)CC1)c1ccccc1F  2.77%
54. COc1ccc(C(=O)OCC(=O)Nc2ccc(N3CCOCC3)cc2)cc1OC  1.59%
55. Cc1cc(-c2ccccc2C(=O)NC2CCCCC2)on1  1.21%
56. O=C(O)[C@H]1CCCN1S(=O)(=O)c1cccc2cccnc12  0.132%
57. O=C(OC1CCc2ccccc2C1=O)c1ccccc1O (stereo not drawn)  0.0313%
58. COc1cc(S(=O)(=O)N2CCC(c3nc4ccccc4s3)CC2)ccc1S(=O)(=O)NC1CCCC1  -0.551%
59. NC(=O)c1nn2c(C(F)(F)F)cc(-c3ccccc3)nc2c1Br  -0.764%
60. Cc1ccccc1S(=O)(=O)Cc1ccc(C(=O)NCCCN2CCN(C)CC2)o1  -1.6%
61. CCN(Cc1cccs1)C(=O)CN1C(=O)NC2(CCCc3ccccc32)C1=O (stereo not drawn)  -2.16%
62. COC(=O)c1cn(-c2ccccc2)nc1-c1ccncc1  -2.62%
63. COc1ccc(-c2cc(-c3cccs3)c(C#N)c(SCC(=O)NCc3ccccc3OC)n2)cc1  -5.25%
64. Cc1nc(Nc2ccccc2)sc1C  -6.02%
65. Cc1ncc2c(c1OC(=O)c1ccccc1)COC(C)(C)OC2  -6.46%
66. COc1ccc(C2(CNC(=O)c3cc([N+](=O)[O-])cc([N+](=O)[O-])c3)CCCC2)cc1OC  -6.52%
67. CCCC[n+]1c(-c2ccc(Cl)cc2Cl)csc1Nc1ccccc1.[Cl-]  -6.7%
68. COc1ccc(-c2[nH]ncc2CN2CCN(C(=O)c3ccco3)CC2)cc1F  -6.81%
69. CCn1c2ccc(C)cc2c2nc3cc(C(=O)O)ccc3nc21  -8.21%
70. O=C(CN(Cc1cccs1)C(=O)CNC(=O)c1ccco1)NC1CCCCC1  -10.1%
71. O=C1CC(N2CCN(c3ccc(S(=O)(=O)N4CCOCC4)cc3)CC2)C(=O)N1Cc1ccccc1 (stereo not drawn)  -11.4%
72. CCOC(=O)C1=C(N)Oc2cc(O)ccc2C1c1cccnc1 (stereo not drawn)  -11.4%
73. c1ccc(-c2nnc(-c3ccccn3)nc2NC2CCCCC2)cc1  -11.6%
74. O=C1CCSc2ccc(Cl)cc2N1Cc1cccc(Cl)c1  -11.7%
75. Cc1c(C(=O)C(=O)NCCc2ccc(S(N)(=O)=O)cc2)c2ccccc2n1C  -13.4%
76. Cc1ccc(-c2nc(CS(=O)(=O)CC(=O)N3CC(C)CC(C)C3)c(C)o2)cc1 (stereo not drawn)  -13.6%
77. CC(Sc1ccc2c(c1)OCCO2)C(=O)Nc1ccc(N2CCOCC2)cc1 (stereo not drawn)  -14.6%
78. Cc1cccc(CSc2ccc(-c3ccco3)nn2)c1  -17.3%
79. Cc1ccnc(N2CCC(C(=O)NCc3ccc4c(c3)OCO4)CC2)n1  -17.5%
80. CCOC(=O)c1ccc(P(=O)(c2ccccc2)c2ccccc2)cc1  -18.2%
81. CCN(CC)Cc1c(O)ccc2c1O/C(=C\C=C\c1ccccc1)C2=O  -18.8%
82. O=C(COC(=O)c1cc([N+](=O)[O-])ccc1NCCO)NCc1cccs1  -19.9%
83. CC1CCC(C(C)C)C(OC(=O)CSc2n[nH]c(=O)[nH]c2=O)C1 (stereo not drawn)  -19.9%
84. COc1ccc(-n2c(C)cc(C(=O)Cn3c(NCCO)nc4ccccc43)c2C)cc1  -21.7%
85. O=C(CSc1nnc(NC2CC2)s1)Nc1ccc(N2CCOCC2)cc1  -23.2%
86. CC(Sc1nnc2c(n1)C1(C)CCC2C1(C)C)C(=O)Nc1ccccc1 (stereo not drawn)  -25.5%
87. CC(C)CCN1C(=O)c2ccc(C(=O)NCc3ccccn3)cc2C1=O  -34.2%
88. O=C(NCc1ccccc1)C1=C[C@@H](c2ccc3c(c2)OCO3)C[C@@H](OCCCCO)O1  -42.2%
89. CCOC(=O)C1CCN(C(=O)COc2ccc(Cl)cc2C)CC1  -46.1%
90. O=C(N/C(=C/c1ccc(Br)cc1)C(=O)N1CCOCC1)c1ccc(Br)o1  -70.2%
